Data on 4 molecules can be found in patent publication US20250250314A1 (XILIO DEVELOPMENT, published 2025).

Experiment [1] deals with PD-1 from the PD-1 effector cells (UniProt Q15116 25-288, limits assumed). Put plainly: cell-based or functional assay.
For experiment [2], the target named is T1, Biotinylated recombinant human CD25 (human, UniProt P01589 22-213, limits assumed, biotinylated).
T1 construct: also called IL-2Rα
T1 sequence (looked up): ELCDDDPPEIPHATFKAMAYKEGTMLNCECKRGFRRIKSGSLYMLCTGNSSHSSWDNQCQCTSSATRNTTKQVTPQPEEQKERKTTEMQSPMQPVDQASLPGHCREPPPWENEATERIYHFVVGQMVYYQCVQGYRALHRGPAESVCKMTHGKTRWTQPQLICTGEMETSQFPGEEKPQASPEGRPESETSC
Description: SPR, steady-state affinity, reference rhIL-2. A general note: In SPR one partner is held on a chip, and binding of the other changes the refractive index at the surface.

For experiment [3], the target named is T2, Biotinylated recombinant human CD122 (human, UniProt P14784 27-239, biotinylated).
T2 sequence (looked up): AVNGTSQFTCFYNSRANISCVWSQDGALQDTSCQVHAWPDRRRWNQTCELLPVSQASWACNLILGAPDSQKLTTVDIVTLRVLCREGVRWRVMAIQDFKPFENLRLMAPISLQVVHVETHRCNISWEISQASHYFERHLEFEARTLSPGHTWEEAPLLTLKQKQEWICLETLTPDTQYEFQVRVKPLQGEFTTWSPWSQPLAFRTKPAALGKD
Description: SPR, Biacore T200, biotinylated CD122 captured on Biotin CAPture chip, steady-state affinity analysis.

Experiment [4] concerns the target T1, Biotinylated recombinant human CD25. Put plainly: SPR, Biacore T200, biotinylated CD25 captured on Biotin CAPture chip, steady-state affinity analysis, 25 C.

Substitutions are numbered along the chain they refer to. Names may count otherwise.

UniProt Q15116, sequence (Q15116 25-288 limits assumed): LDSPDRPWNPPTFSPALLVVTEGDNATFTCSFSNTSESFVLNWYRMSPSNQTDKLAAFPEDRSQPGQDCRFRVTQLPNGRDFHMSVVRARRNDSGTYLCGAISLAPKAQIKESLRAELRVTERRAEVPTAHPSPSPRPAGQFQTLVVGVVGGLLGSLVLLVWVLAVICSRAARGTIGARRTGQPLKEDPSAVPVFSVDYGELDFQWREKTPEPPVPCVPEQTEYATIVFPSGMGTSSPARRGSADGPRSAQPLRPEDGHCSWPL

B1: UCM9 (other)
heavy 1: QVQLVQSGVEVKKPGASVKVSCKASGYTFTNYYMYWVRQAPGQGLEWMGGINPSNGGTNFNEKFKNRVTLTTDSSTTTAYMELKSLQFDDTAVYYCARRDYRFDMGFDYWGQGTTVTVSSASTKGPSVFPLAPSSKSTSGGTAALGCLVKDYFPEPVTVSWNSGALTSGVHTFPAVLQSSGLYSLSSVVTVPSSSLGTQTYICNVNHKPSNTKVDKKVEPKSCDKTHTCPPCPAPELLGGPSVFLFPPKPKDTLMISRTPEVTCVVVDVSHEDPEVKFNWYVDGVEVHNAKTKPREEQYASTYRVVSVLTVLHQDWLNGKEYKCKVSNKALPAPIEKTISKAKGQPREPQVYTLPPCRDELTKNQVSLWCLVKGFYPSDIAVEWESNGQPENNYKTTPPVLDSDGSFFLYSKLTVDKSRWQQGNVFSCSVMHEALHNRFTQKSLSLSPGGGSSPPGGGSSGGGSGP[left out - about 150 residues]
heavy 2: QVQLVQSGVEVKKPGASVKVSCKASGYTFTNYYMYWVRQAPGQGLEWMGGINPSNGGTNFNEKFKNRVTLTTDSSTTTAYMELKSLQFDDTAVYYCARRDYRFDMGFDYWGQGTTVTVSSASTKGPSVFPLAPSSKSTSGGTAALGCLVKDYFPEPVTVSWNSGALTSGVHTFPAVLQSSGLYSLSSVVTVPSSSLGTQTYICNVNHKPSNTKVDKKVEPKSCDKTHTCPPCPAPELLGGPSVFLFPPKPKDTLMISRTPEVTCVVVDVSHEDPEVKFNWYVDGVEVHNAKTKPREEQYASTYRVVSVLTVLHQDWLNGKEYKCKVSNKALPAPIEKTISKAKGQPREPQVCTLPPSRDELTKNQVSLSCAVKGFYPSDIAVEWESNGQPENNYKTTPPVLDSDGSFFLVSKLTVDKSRWQQGNVFSCSVMHEALHNHYTQKSLSLPLGLGGSSGSGGSGGGSGSGGGEVQLVESGGGLVQPGGSLRLSCAASGSIFSINVMGWYRQAPGKGRELVAAISSGGSTNYADSVKGRFTISRDNAKNTVYLQMNSLKPEDTAVYYCAYASSYYEDETDYWGQGTQVTVSS
light: EIVLTQSPATLSLSPGERATLSCRASKGVSTSGYSYLHWYQQKPGQAPRLLIYLASYLESGVPARFSGSGSGTDFTLTISSLEPEDFAVYYCQHSRDLPLTFGGGTKVEIKRTVAAPSVFIFPPSDEQLKSGTASVVCLLNNFYPREAKVQWKVDNALQSGNSQESVTEQDSKDSTYSLSSTLTLSKADYEKHKVYACEVTHQGLSSPVTKSFNRGEC
With B1, the “EC50 (nM), fold induction of luminescence in the PD-1/PD-L1 Blockade Bioassay” value (shortened to “EC50 (nM), fold induction”) in experiment [1] was found to be 1.76 nM.

B2: UCM11 (other)
heavy 1: QVQLVQSGVEVKKPGASVKVSCKASGYTFTNYYMYWVRQAPGQGLEWMGGINPSNGGTNFNEKFKNRVTLTTDSSTTTAYMELKSLQFDDTAVYYCARRDYRFDMGFDYWGQGTTVTVSSASTKGPSVFPLAPSSKSTSGGTAALGCLVKDYFPEPVTVSWNSGALTSGVHTFPAVLQSSGLYSLSSVVTVPSSSLGTQTYICNVNHKPSNTKVDKKVEPKSCDKTHTCPPCPAPELLGGPSVFLFPPKPKDTLMISRTPEVTCVVVDVSHEDPEVKFNWYVDGVEVHNAKTKPREEQYASTYRVVSVLTVLHQDWLNGKEYKCKVSNKALPAPIEKTISKAKGQPREPQVYTLPPCRDELTKNQVSLWCLVKGFYPSDIAVEWESNGQPENNYKTTPPVLDSDGSFFLYSKLTVDKSRWQQGNVFSCSVMHEALHNRFTQKSLSLSPGGGSSPPGGGSSGGGSGP[left out - about 150 residues]
heavy 2: B1 heavy 2 with S445G, L446G, G512Q, A564M, Y569W
light: B1 light
For the molecule B2, the “EC50 (nM), fold induction” value in experiment [1] stood at 1.6 nM.

B3: UCM12 (other)
heavy 1: QVQLVQSGVEVKKPGASVKVSCKASGYTFTNYYMYWVRQAPGQGLEWMGGINPSNGGTNFNEKFKNRVTLTTDSSTTTAYMELKSLQFDDTAVYYCARRDYRFDMGFDYWGQGTTVTVSSASTKGPSVFPLAPSSKSTSGGTAALGCLVKDYFPEPVTVSWNSGALTSGVHTFPAVLQSSGLYSLSSVVTVPSSSLGTQTYICNVNHKPSNTKVDKKVEPKSCDKTHTCPPCPAPELLGGPSVFLFPPKPKDTLMISRTPEVTCVVVDVSHEDPEVKFNWYVDGVEVHNAKTKPREEQYASTYRVVSVLTVLHQDWLNGKEYKCKVSNKALPAPIEKTISKAKGQPREPQVYTLPPCRDELTKNQVSLWCLVKGFYPSDIAVEWESNGQPENNYKTTPPVLDSDGSFFLYSKLTVDKSRWQQGNVFSCSVMHEALHNRFTQKSLSLSPGGGSSPPGGGSSGGGSGP[left out - about 150 residues]
heavy 2: QVQLVQSGVEVKKPGASVKVSCKASGYTFTNYYMYWVRQAPGQGLEWMGGINPSNGGTNFNEKFKNRVTLTTDSSTTTAYMELKSLQFDDTAVYYCARRDYRFDMGFDYWGQGTTVTVSSASTKGPSVFPLAPSSKSTSGGTAALGCLVKDYFPEPVTVSWNSGALTSGVHTFPAVLQSSGLYSLSSVVTVPSSSLGTQTYICNVNHKPSNTKVDKKVEPKSCDKTHTCPPCPAPELLGGPSVFLFPPKPKDTLMISRTPEVTCVVVDVSHEDPEVKFNWYVDGVEVHNAKTKPREEQYASTYRVVSVLTVLHQDWLNGKEYKCKVSNKALPAPIEKTISKAKGQPREPQVCTLPPSRDELTKNQVSLSCAVKGFYPSDIAVEWESNGQPENNYKTTPPVLDSDGSFFLVSKLTVDKSRWQQGNVFSCSVMHEALHNHYTQKSLGGPLGLGGSSGSGGSGGGSGSGGGEVQLVESGGGLVQPGGSLRLSCAASGSIFSINVMGWYRQAPGKQRELVAAISSGGSTNYADSVKGRFTISRDNAKNTVYLQMNSLKPEDTAVYYCMYASSWYEDETDYWGQGTQVTVSSAAA
light: B1 light
notes: Masked, PD-1-targeted attenuated IL-2 (F42E, C125A); GGPLGL cleavable Fc
Regarding B3, the “fold reduced affinity compared to rhIL-2” value in experiment [2] is 236 fold. The binding result in experiment [3] is reported as “no binding (tested: 18.52 to 13,500 nM test article)”. Further, the Kd in experiment [4] was found to be 2920 nM.

B4: Control UCM3 (other)
heavy 1: QVQLVQSGVEVKKPGASVKVSCKASGYTFTNYYMYWVRQAPGQGLEWMGGINPSNGGTNFNEKFKNRVTLTTDSSTTTAYMELKSLQFDDTAVYYCARRDYRFDMGFDYWGQGTTVTVSSASTKGPSVFPLAPSSKSTSGGTAALGCLVKDYFPEPVTVSWNSGALTSGVHTFPAVLQSSGLYSLSSVVTVPSSSLGTQTYICNVNHKPSNTKVDKKVEPKSCDKTHTCPPCPAPELLGGPSVFLFPPKPKDTLMISRTPEVTCVVVDVSHEDPEVKFNWYVDGVEVHNAKTKPREEQYASTYRVVSVLTVLHQDWLNGKEYKCKVSNKALPAPIEKTISKAKGQPREPQVYTLPPCRDELTKNQVSLWCLVKGFYPSDIAVEWESNGQPENNYKTTPPVLDSDGSFFLYSKLTVDKSRWQQGNVFSCSVMHEALHNRFTQKSLSLSPGGGSSPPGGGSSGGGSGPAPTSSSTKKTQLQLEHLLLDLQMILNGINNYKNPKLTAMLTAKFAMPKKATELKHLQCLEEALKPLEEVLNLAQSKNFHLRPRDLISNINVIVLELKGSETTFMCEYADETATIVEFLNRWITFAQSIISTLT
heavy 2: QVQLVQSGVEVKKPGASVKVSCKASGYTFTNYYMYWVRQAPGQGLEWMGGINPSNGGTNFNEKFKNRVTLTTDSSTTTAYMELKSLQFDDTAVYYCARRDYRFDMGFDYWGQGTTVTVSSASTKGPSVFPLAPSSKSTSGGTAALGCLVKDYFPEPVTVSWNSGALTSGVHTFPAVLQSSGLYSLSSVVTVPSSSLGTQTYICNVNHKPSNTKVDKKV[left out - human IgG1 Fc with changes]
light: B1 light
Turning to B4, the “EC50 (nM), fold induction” value in experiment [1] was 0.78 nM.

What is called Kd is the constant that tells how readily two partners part at equilibrium.
